One test deals with T1, myc-tagged PTCH1(1-1203) (UniProt Q13635).
T1 sequence: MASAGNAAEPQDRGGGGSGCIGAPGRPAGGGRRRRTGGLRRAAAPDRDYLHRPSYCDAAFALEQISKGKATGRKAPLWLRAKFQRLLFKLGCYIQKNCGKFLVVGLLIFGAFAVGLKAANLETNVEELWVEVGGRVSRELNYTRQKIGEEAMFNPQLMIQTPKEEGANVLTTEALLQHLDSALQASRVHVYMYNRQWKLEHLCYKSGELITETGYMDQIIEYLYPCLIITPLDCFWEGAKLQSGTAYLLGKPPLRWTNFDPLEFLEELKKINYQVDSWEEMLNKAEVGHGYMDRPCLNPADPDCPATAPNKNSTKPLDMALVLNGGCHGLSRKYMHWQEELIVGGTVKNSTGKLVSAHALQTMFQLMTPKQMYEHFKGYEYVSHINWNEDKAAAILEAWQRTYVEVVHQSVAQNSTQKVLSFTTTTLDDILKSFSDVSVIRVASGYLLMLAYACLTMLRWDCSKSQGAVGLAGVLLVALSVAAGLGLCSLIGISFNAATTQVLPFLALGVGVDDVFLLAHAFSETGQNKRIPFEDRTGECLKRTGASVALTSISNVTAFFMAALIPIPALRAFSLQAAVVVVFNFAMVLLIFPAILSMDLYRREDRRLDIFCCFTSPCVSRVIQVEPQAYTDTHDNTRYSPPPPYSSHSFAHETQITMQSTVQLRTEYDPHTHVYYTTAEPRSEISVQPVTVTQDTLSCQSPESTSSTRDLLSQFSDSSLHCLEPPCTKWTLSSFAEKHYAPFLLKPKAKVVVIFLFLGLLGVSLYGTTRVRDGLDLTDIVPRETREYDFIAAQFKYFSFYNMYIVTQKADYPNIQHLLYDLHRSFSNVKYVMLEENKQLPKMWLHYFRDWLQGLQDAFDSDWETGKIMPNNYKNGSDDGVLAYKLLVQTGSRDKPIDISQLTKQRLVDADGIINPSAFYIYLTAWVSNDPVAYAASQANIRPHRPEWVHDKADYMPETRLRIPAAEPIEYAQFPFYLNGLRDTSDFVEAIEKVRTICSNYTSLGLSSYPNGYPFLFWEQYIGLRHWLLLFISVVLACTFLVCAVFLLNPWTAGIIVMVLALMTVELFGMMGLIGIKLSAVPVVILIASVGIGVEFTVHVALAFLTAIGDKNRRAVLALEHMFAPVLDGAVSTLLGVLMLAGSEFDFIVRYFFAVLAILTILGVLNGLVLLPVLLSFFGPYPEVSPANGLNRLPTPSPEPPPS
As to the kind of experiment: co-IP; HEK293 cells co-transfected with myc-PTCH1 variants and ATG101-FLAG; PTCH1 variants immunoprecipitated by the myc tag, immunoblotting; lysis buffer 50 mM Tris HCl pH 7.5, 150 mM NaCl, 1% NP-40, 0.05% sodium deoxycholate, 4 °C. (In general: Immunoblotting shows a protein as a band on a membrane.)

The next test concerns the target T2, myc-tagged PTCH1(1-1308) (UniProt Q13635).
T2 sequence: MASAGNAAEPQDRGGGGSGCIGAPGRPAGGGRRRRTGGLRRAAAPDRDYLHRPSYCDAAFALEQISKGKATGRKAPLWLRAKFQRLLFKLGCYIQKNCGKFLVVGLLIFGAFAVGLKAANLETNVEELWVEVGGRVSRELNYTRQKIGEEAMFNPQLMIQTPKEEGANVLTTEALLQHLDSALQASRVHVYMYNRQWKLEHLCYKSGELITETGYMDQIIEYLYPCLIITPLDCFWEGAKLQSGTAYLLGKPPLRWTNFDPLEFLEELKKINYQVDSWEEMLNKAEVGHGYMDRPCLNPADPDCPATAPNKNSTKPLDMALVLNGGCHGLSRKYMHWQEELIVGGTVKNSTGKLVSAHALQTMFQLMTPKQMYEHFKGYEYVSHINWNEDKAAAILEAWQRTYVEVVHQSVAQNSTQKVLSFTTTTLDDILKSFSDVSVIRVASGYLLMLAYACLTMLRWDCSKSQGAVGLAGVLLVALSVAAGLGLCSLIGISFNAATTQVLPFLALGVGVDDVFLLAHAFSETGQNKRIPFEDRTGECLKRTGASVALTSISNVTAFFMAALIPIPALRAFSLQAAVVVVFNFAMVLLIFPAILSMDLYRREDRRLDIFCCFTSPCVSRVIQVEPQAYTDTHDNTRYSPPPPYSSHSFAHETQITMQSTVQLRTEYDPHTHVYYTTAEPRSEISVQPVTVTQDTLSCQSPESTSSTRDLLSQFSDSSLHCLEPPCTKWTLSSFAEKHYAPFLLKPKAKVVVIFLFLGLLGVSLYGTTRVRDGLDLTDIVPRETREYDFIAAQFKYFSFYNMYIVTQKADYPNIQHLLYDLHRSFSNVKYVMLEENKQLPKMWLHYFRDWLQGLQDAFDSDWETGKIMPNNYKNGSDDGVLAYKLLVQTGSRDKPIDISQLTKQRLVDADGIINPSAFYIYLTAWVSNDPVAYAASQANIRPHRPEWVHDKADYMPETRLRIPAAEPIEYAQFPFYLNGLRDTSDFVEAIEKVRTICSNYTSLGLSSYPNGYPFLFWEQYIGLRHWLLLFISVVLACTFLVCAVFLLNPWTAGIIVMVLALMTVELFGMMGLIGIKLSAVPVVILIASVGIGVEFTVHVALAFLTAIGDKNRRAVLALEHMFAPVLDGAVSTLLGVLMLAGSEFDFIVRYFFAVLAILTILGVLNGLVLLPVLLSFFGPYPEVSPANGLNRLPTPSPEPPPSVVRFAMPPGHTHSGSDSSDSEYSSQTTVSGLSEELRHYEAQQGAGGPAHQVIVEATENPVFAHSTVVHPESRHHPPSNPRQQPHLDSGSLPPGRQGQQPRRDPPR
Described as above.

Consider 1 molecule from publication PMC9856372.

These are yes or no findings as the source states them, for the method shown. In cells and extracts the contact can be indirect. Tags and fused reporters may be left off the sequences shown.

B1: ATG101-FLAG (protein, UniProt Q9BSB4 1-218)
chain: MNCRSEVLEVSVEGRQVEEAMLAVLHTVLLHRSTGKFHYKKEGTYSIGTVGTQDVDCDFIDFTYVRVSSEELDRALRKVVGEFKDALRNSGGDGLGQMSLEFYQKKKSRWPFSDECIPWEVWTVKVHVVALATEQERQICREKVGEKLCEKIINIVEVMNRHEYLPKMPTQSEVDNVFDTGLRDVQPYLYKISFQITDALGTSVTTTMRRLIKDTLAL
As for B1, the binding result with myc-tagged PTCH1(1-1203) and in the test with myc-tagged PTCH1(1-1308) was “no binding” each time.
